In all, about 45,000 compounds went through this assay and about 65 (0.1%) were called active. Calls come from the whole dose curve; as a rule, active = well fitted activation curve with a large enough effect; inconclusive = small, poorly fitted or top-dose-only effect; inactive = no such curve, though single readings can be large or run the other way. The list shows a part of the results.
What follows are compounds tested against Galactocerebrosidase (Homo sapiens) (UniProt P54803) (assay: A Novel Cell-Based Assay to Identify Small Molecules for B -Galactocerebrosidase). Details: 145M-Twi-hGALC-G270D cells (Twitcher mouse brain line with human GALC G270D), HMU-beta-Gal fluorescence, 48 h; series mostly up to 57.5 µM; activation: at the top concentration.
Procedure, shortened: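 Fluorescence readout: HMU-β-gal cleavage by mutant GALC (0.1 mM final, citrate/phosphate pH 5.2 with 1 mg/mL taurocholate), stopped with carbonate/bicarbonate plus Triton X-100. Cells: murine Twitcher 145M-Twi expressing human G270D GALC; qHTS for activators.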
Note: 0% is about no effect; nearly all actives have a fitted effect of over 65% in size.

Sequence of UniProt P54803 (P54803 whole entry, looked up): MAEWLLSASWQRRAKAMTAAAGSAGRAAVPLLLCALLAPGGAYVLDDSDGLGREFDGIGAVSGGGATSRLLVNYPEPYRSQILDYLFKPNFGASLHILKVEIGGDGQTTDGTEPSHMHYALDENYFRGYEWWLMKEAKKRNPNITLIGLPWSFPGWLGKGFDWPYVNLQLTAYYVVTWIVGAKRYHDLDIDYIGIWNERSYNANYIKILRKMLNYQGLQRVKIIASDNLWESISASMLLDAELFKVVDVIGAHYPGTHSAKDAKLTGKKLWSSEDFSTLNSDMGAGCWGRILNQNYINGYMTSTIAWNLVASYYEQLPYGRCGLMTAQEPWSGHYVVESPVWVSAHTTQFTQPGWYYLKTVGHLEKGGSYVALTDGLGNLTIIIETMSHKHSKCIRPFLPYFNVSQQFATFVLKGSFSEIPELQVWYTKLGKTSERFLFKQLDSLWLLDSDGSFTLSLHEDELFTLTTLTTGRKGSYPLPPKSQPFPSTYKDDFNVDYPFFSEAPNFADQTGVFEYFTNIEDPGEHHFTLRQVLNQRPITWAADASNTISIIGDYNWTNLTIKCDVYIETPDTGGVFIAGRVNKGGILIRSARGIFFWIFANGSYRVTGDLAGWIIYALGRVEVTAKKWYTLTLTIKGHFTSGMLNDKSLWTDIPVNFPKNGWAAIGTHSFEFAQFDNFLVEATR

activation, inactive:
COc1cccc(-c2csc(-c3c(N)c(C(=O)c4ccccc4)n4ccccc34)n2)c1 -19.3%, Cc1nc2n(c(=O)c1CCN1CCC(c3noc4cc(F)ccc34)CC1)CCC[C@H]2O -5.98% [at 23.8 µM], CCOc1ccccc1NC(=O)CSc1ncc(S(=O)(=O)c2ccc(C)c(C)c2)c(N)n1 0.691%, CCSc1nnc2c(n1)OC(c1ccc(C)s1)Nc1ccccc1-2 (configuration not stated) 6.37%, O=C(CSc1nnc(-c2ccccc2F)o1)Nc1ccccc1Cl -15.4%, COc1ccc(CCNC(=O)Cn2cc(S(=O)(=O)Cc3ccccc3Cl)c3ccccc32)cc1OC -1.46%, CCOc1ccc(NC(=O)Cn2nnc(C(=O)NCCc3ccccc3)c2N)cc1 -15.9%, COc1ccc(-c2cc(OC(=O)c3cccc(Cl)c3)c3c(C)oc(C)c3c(=O)c2)cc1 -13.4%, COc1cc(NC(=O)N2CCC3(CC2)Nc2ccccc2-n2cccc23)cc(OC)c1OC -39.6%, CCc1nn(CC(=O)Nc2c(C)cccc2C)c(=O)c2cc3sccc3n12 -20.1%, O=C(CSc1nc2c([nH]c3ccccc32)c(=O)n1-c1ccccc1)Nc1ccc(Cl)c(Cl)c1 -9.63%, COc1ccc(-c2noc(-c3ccc(NCC4CCCO4)c([N+](=O)[O-])c3)n2)cc1 (configuration not stated) -4.14%, CNC(=O)c1c(NC(=O)Cc2coc3ccc(C)cc23)sc2c1CCCC2 -15.5%, O=C(NCCc1ccc(Cl)cc1)C1COc2ccccc2C1 (configuration not stated) -12.5%, Cc1nc(-c2ccc(S(=O)(=O)N3CCN(c4cc(Cl)ccc4C)CC3)cc2)co1 -18.9%, O=C(c1ccc(F)cc1)n1nc(-c2cccnc2)nc1NCc1ccc(F)cc1 -8.18%, Cc1cn2c(=O)c(S(=O)(=O)N3CCN(c4cc(Cl)ccc4C)CC3)c(C)nc2s1 -5.55%, COc1ccccc1NC(=O)CSc1oc(-c2ccccc2)nc1S(=O)(=O)c1ccc(C)cc1 -2.42%, CCOC(=O)c1noc2ncn(CC(=O)Nc3cccc(Cl)c3)c(=O)c12 -13.1%, O=C(CSc1c2c(nc3cc(Cl)ccc13)CCCC2)N1CCN(c2ccccc2F)CC1 -9.52%, O=C(COc1ccc2ccccc2c1)NC1CC(=O)N(c2ccccc2)C1 (configuration not stated) 8.67%, Cc1ccc2nc(-c3cccnc3)c(Nc3ccc(C(C)C)cc3)n2c1 -26.3%, N#Cc1ccccc1NC(=O)C(=O)NCCc1csc(-c2ccc(F)cc2)n1 -20.1%, Cc1ccc(S(=O)(=O)c2nc(-c3cccs3)oc2SC(C)C)cc1 -12.3%, COc1ccc2c(Sc3ccc(Cl)cc3)c(C(=O)N3CCC(C)CC3)[nH]c2c1 -47.1%, O=C(Cn1c(=O)oc2cc(S(=O)(=O)N3CCCC3)ccc21)Nc1ccc(F)cc1F -14.6%, CCNC(=O)CC1C(=O)N(c2ccc(C)cc2)C(=O)N1CCC(C)C (configuration not stated) -20%, O=C(Nc1cccc(-c2nc3cccnc3s2)c1)c1cccc(Br)c1 -16.8%, CCOC(=O)c1ccc(NC(=O)c2cn(-c3ccccc3)nc2-c2ccc(OC)c(OC)c2)cc1 -3.96%, CCOC(=O)c1nc(Nc2ccc(C(=O)OC)cc2)c2ccccc2n1 3.04%, CCOC(=O)c1c(C)oc2nc(C)nc(NCc3cccc(Cl)c3)c12 -17%, CCCCOc1cccc(NC(=O)c2cccc(C(=O)Nc3cccc(OCCCC)c3)c2)c1 -16.4%, O=C(c1cccc(Cl)c1)n1nc(-c2cccnc2)nc1NCc1ccccc1 -29.4%, Cc1ccc(C(=O)Nc2nc(-c3nnn(-c4cccc(C(F)(F)F)c4)c3C)ns2)cc1 -19.6%, COc1cc(OC)cc(C(=O)Nc2nnc3n2CCS3)c1 -9.24%, COc1cccc(C(=O)NCC(=O)OCc2cc(=O)n3ccsc3n2)c1 4.25%, CSCCC(NS(=O)(=O)c1ccc2c(c1)oc(=O)n2C)C(=O)N1CCN(c2ccc(C(C)=O)cc2)CC1 (configuration not stated) -2.5%, CCc1ccc(-n2c(=O)c3cccnc3n2CC(=O)Nc2cc(OC)ccc2OC)cc1 -20.2%, CCc1ccccc1NC(=O)c1ccc(=O)n(Cc2ccc(F)cc2)c1 -9.02%, COc1cc(OC)cc(-c2nc3nc(C)c(CCC(=O)NCCC(C)C)c(C)n3n2)c1 10.4%, CCOC(=O)c1c(S(=O)(=O)NCC(=O)Nc2ccc(F)cc2C)c(C)n(C)c1C -7.9%, COc1ccccc1NC(=O)CN1C(=O)CSc2ccc(S(=O)(=O)N3CCCC3)cc21 -22.1%, O=c1c(S(=O)(=O)c2cccc(Cl)c2)cn(Cc2ccccc2)c2cc(N3CCCCC3)c(F)cc12 -13.6%, CCN(CC)S(=O)(=O)c1ccc2[nH]cc(C(=O)NCCc3ccccc3)c(=O)c2c1 -6.49%, CC(C)CC(=O)Nc1nnc(SCc2cc(=O)n3ccccc3n2)s1 -4.87%, Cc1cc(C)c(NC(=O)CCCn2c(C)c3cnn(-c4ccccc4)c(=O)c3c2C)c(C)c1 -11.1%, Cc1ccc(CCNC(=O)c2cn(C)c3ccc(S(=O)(=O)N4CCC(C)CC4)cc3c2=O)cc1 -11.5%, COc1cccc(-n2cc(C(=O)OCc3ccc(Cl)cc3)c3ccccc3c2=O)c1 -4.96%, O=C(NCc1ccccc1Cl)c1ccc(Cn2c(=O)c3cccn3c3cccnc32)cc1 6.86%, CCOc1ccc(-n2c(=O)c3c(C)c(C)sc3n(CC(=O)N3CCC(C)CC3)c2=O)cc1 -6.26%, Cc1cccc(CNC(=O)c2ccc(C)c(-n3c(C)nc4cccnc43)c2)c1 -3.7%, CC(=O)C1=C(c2ccc(Br)cc2)N(C(C)=O)n2c(nnc2C2CCCCC2)S1 -13.1%, CCn1ccc2cc(S(=O)(=O)N3CCC(C(=O)NCCc4ccccc4)CC3)ccc21 -7.29%, COc1cc(OC)c(NC(=O)c2c(C)oc3nc(C)nc(N4CCOCC4)c23)cc1Cl -10.6%, CC(=O)Nc1ccccc1-c1nc2ccccc2n(CC(=O)c2ccc(Br)cc2)c1=O -19.7%, CCOC(=O)c1cccc(NC(=O)c2cc(S(=O)(=O)N3CCCC(C)C3)cn2C)c1 (configuration not stated) -5.92%, CC1=C(C(N)=O)C(c2ccc(C)cc2)n2nc(SCc3ccccc3F)nc2N1 (configuration not stated) -7.35%, COC(=O)CNC(c1ccccc1)c1cc(Br)ccc1NC(=O)c1ccccc1 (configuration not stated) -5.16%, COc1cccc(-n2cc(C(=O)Nc3cc(OC)c(OC)c(OC)c3)c3ccccc3c2=O)c1 -10.7%, CCOC(=O)C1CCCN(C(=O)Cn2ncc3c(C)n(Cc4ccccc4F)c(C)c3c2=O)C1 (configuration not stated) -9.96%, COc1cccc(CNC(=O)CSc2nnc(C)c3c(C)n(-c4ccccc4)nc23)c1OC -18.9%, Cc1onc(-c2c(F)cccc2Cl)c1C(=O)Nc1ccc(OC(C)C)cc1 -9.06%, N#CSCC(=O)O -16.1%, Cc1ccc2oc(=O)c3cc(C(=O)Nc4ccccc4C(N)=O)sc3c2c1 -2.17%, COc1ccc(-c2cc(C(F)(F)F)nc(SCC(=O)N3CCCCC3C)n2)cc1OC (configuration not stated) -13.2%, CCc1cccc(C)c1NC(=O)C1CCN(c2nn3c(=O)cc(C)nc3s2)CC1 -13.8%, Cc1ccc(-n2nc3c(N4CCC(C(=O)NC(C)c5ccccc5)CC4)nnc(C)c3c2C)cc1 (configuration not stated) -17.8%, CCOc1ccc(Nc2cc(C)nc3nc(Cc4ccc(Cl)cc4)nn23)cc1 -4.14%, O=C(CCCl)NCCc1ccccc1 -10.6%, COc1ccccc1N1CCN(C(=O)c2c(C)oc3ncn(CC(C)C)c(=O)c23)CC1 -6.88%, O=C(Cn1ccc2ccccc2c1=O)NCCC(=O)Nc1ccc(F)cc1F -14.4%, Cc1cccc(NC(=O)Nc2ccc(Br)cc2)n1 -30.7%, COc1ccc(CCNC(=O)c2cc3c(s2)-c2ccccc2OC3)cc1OC -14.1%, O=C1CCCc2cc(S(=O)(=O)NCC3CCC(C(=O)NCc4ccccc4Cl)CC3)ccc2N1 (configuration not stated) -7.41%, CCOCCCn1c(=N)c(C(=O)NCc2cccnc2)cc2c(=O)n3cc(C)ccc3nc21 -13.3%, CCOC(=O)c1cnc2c(ccc3ccccc32)c1Nc1ccc(OCC)cc1 -15.2%, COc1ccc(S(=O)(=O)c2c(O)c3ccc(C(=O)NCc4ccccc4)cc3[nH]c2=O)cc1 -17.9%, COc1ccc(-c2cc(C(=O)Oc3cccc(C)c3)c3cc(C)ccc3n2)cc1 -7.46%, O=C(COc1ccccc1F)OCc1cc(=O)n2nc(C3CC3)sc2n1 2.56%, Cc1oc2ncn(CC(C)C)c(=O)c2c1C(=O)NCCCN1CCC(C)CC1 -7.97%, Cc1cc(C)cc(-n2c(C)nc3cc(C(=O)NCc4ccccc4Cl)ccc32)c1 -24.9%, COc1cccc(C(=O)Nc2ccc(-n3nncc3-c3ccccc3)cc2)c1 -4.88%, Cc1ccc(NC(=O)CN2C(=O)CCc3cc(S(=O)(=O)N4CCCCC4)ccc32)cc1C -2.37%, CCN(CC)Cc1c(NC(=O)c2ccc(OC)cc2)sc2c1CCCC2 2.41%, CC(=O)Nc1ccc(Nc2nc3c(S(=O)(=O)c4cccc(Cl)c4)nnn3c3ccsc23)cc1 -9.6%, Cc1ccc(C)c(-c2nnc(NC(=O)c3ccc4c(c3)OCCO4)o2)c1 -15%, COc1ccc(CCNC(=O)Cn2c(=O)c3cccn3c3ccc(F)cc32)c(OC)c1 -13.8%, CSc1ccc(C2c3c(oc4cc(C)cc(C)c4c3=O)C(=O)N2CCO)cc1 (configuration not stated) -7.04%, Cc1nc2sc(C(=O)N(C)c3ccccc3)c(NC(=O)c3ccccc3Cl)c2c(C)c1C -7.9%, Cc1ccc(CN(C(=O)COc2ccc(Cl)cc2C)C2CCS(=O)(=O)C2)o1 (configuration not stated) -17.1%, CCCn1c(=O)c2c(nc3n2CCN3c2ccc(C)cc2)n(C)c1=O -12.7%, CC[C@@H](C)[C@@H](C(=O)Nc1ccc(C)cc1)N1Cc2ccccc2C1=O -13%, Cc1ccc(OCC(=O)N(Cc2ccco2)Cc2ccco2)cc1C -9.34%, CC(C)CCNC(=O)CCn1c(=O)c2cccn2c2cccnc21 -7.45%, COc1cn(CC(=O)Nc2ccccc2)c(CN2CCCCC2)cc1=O -6.72%, CCOc1ccc(NC(=O)N(Cc2c[nH]c3ccccc23)C2CCCCCC2)cc1 -11.9%, CCN(CC)C(=O)C1CN2CCc3cc(OC)c(OC)cc3C2CC1OC(C)=O (configuration not stated) -13.2%

From PubChem BioAssay AID1159614 (National Center for Advancing Translational Sciences (NCATS), 2016)
